Source: patent publication US20110178118A1, “PALONOSETRON FOR THE TREATMENT OF CHEMOTHERAPY INDUCED EMESES” (priority 2002, published 2011)

Test system: Highly Emetogenic Chemotherapy-Induced Nausea and Vomiting
Assay: Phase II dose-ranging trial, single I.V. palonosetron, efficacy
Settings: complete control (no emesis, no rescue, mild nausea)
Protocol: A randomized, double-blind, multicenter, dose-ranging Phase II trial was performed to identify the dose response relationship among single I.V. doses of palonosetron. Patients receiving highly emetogenic chemotherapy including cyclophosphamide (>1100 mg/m2) and cisplatin (>70 mg/m2), commonly associated with delayed emesis, were assigned to one of five dose groups of a single I.V. administration of palonosetron. Palonosetron was administered alone (without dexamethasone) as a 30 second intravenous injection, 30 minutes prior to chemotherapy administration. The primary endpoint was 24-hour complete responses (no emesis, no rescue) (CR). Secondary endpoints included complete control (no emesis, no rescue, mild nausea) (CC) and 5-day CR.
161 patients (32 women, 129 men) participated. […] The most commonly reported adverse events related to study medication include: headache (19.3%); constipation (8.7%), dizziness (2.5%) and abdominal pain (2.5%).

SMILES: Cl.O=C1c2cccc3c2[C@H](CCC3)CN1[C@@H]1CN2CCC1CC2 [Palonosetron, (3aS)-2,3,3a,4,5,6-Hexahydro-2-[(S)-1-Azabicyclo[2.2.2]oct-3-yl]2,3,3a,4,5,6-hexahydro-1-oxo-1Hbenz[de]isoquinoline hydrochloride]
- % CC(24 hr) (palonosetron 0.3-1 mcg/kg single I.V.): 24%
- % CC(24 hr) (palonosetron 3 mcg/kg single I.V.): 39%
- % CC(24 hr) (palonosetron 10 mcg/kg single I.V.): 40%
- % CC(24 hr) (palonosetron 30 mcg/kg single I.V.): 48%
- % CC(24 hr) (palonosetron 90 mcg/kg single I.V.): 46%
